Data: PMC4336329 (PLoS ONE, 2015)
The whole screen tested about 310,000 compounds, of which about 14,000 (4.5%) showed an effect of 50% or more. The effect is printed as a negative number. The list shows a part of the results.

What follows are compounds tested against human ether-à-go-go-related gene (hERG) potassium channel (human, UniProt Q12809) (assay: primary screen, population patch clamp on CHO cells stably expressing hERG).
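Further: peak tail current of the secondary pulse compared with the same well before compound.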

Chain of human ether-à-go-go-related gene (hERG) potassium channel (Q12809 whole entry, looked up): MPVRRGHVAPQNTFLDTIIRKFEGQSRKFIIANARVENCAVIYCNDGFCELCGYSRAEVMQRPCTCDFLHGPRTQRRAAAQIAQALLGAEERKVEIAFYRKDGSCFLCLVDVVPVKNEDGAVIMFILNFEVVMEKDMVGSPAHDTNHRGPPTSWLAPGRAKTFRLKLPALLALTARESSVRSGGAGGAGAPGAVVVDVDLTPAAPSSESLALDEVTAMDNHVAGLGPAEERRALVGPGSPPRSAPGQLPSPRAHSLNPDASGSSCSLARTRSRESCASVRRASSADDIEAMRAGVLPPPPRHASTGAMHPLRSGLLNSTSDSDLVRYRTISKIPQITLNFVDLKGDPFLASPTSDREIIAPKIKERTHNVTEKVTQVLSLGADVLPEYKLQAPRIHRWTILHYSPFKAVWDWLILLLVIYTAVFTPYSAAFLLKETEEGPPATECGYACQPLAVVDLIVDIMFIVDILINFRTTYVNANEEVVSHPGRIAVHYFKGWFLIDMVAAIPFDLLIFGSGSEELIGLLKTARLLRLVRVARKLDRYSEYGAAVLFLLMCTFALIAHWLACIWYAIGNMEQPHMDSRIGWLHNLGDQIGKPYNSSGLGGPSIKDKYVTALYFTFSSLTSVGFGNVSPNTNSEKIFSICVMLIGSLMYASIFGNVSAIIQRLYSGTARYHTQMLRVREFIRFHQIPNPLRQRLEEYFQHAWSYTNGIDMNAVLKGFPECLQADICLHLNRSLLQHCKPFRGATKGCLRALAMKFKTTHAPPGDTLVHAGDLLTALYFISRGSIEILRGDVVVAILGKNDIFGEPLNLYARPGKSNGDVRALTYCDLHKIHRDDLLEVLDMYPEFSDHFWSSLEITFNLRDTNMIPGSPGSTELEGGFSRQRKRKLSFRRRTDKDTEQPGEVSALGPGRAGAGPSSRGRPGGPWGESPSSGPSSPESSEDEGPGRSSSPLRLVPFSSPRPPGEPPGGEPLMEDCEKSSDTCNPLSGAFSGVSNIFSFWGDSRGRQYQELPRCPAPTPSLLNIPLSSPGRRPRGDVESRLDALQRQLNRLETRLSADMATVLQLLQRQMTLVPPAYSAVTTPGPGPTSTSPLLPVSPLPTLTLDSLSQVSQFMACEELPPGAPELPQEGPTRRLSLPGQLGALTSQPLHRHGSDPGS

Row | SMILES | hERG current change (%, negative = inhibition) at 10uM [%]
1 | CCN(CC)S(=O)(=O)c1cc(NC(=O)C2CCN(c3ncnc4sc(C)c(C)c34)CC2)ccc1Cl | 23.3
2 | C=CCn1c(O)c(C2=c3ccccc3=NC2=O)c2ccccc21 | 15
3 | O=C(Nc1cc([N+](=O)[O-])ccc1C(=O)NCCN1CCOCC1)c1ccccc1 | -44.9
4 | Cc1ccc(NC(=O)CNc2ccc(Cl)cc2F)cc1 | -5.7
5 | COc1ccccc1NC(=O)Cn1cnc2c(nc3n2CCCCC3)c1=O | -11.4
6 | O=C(CN1CCN(S(=O)(=O)c2ccccc2)CC1)Nc1ccc([N+](=O)[O-])cc1 | -73.4
7 | Cc1ccccc1CSc1nnc(-c2cccnc2)n1N | 3.34
8 | O=C(OCc1nc2ccsc2c(=O)[nH]1)c1ccccc1 | 0.869
9 | COC(=O)CCC(=O)N1CCCC(N2CCN(c3cccc(C(F)(F)F)c3)CC2)C1 (centres unmarked) | -35.8
10 | COc1cccc(NC(=O)C(NC2CCCC2)c2ccccc2)c1 (centres unmarked) | -21.8
11 | Cc1cccnc1NC(=O)c1ccc(Br)o1 | 32.6
12 | CCOC(=O)c1[nH]c(C)c(C(=O)OCC(=O)NCc2ccc(Cl)cc2)c1C | -0.581
13 | COc1ccc(/C=N/NC(=O)C(Cc2c[nH]c3ccccc23)NC(=O)OCC(C)C)cc1[N+](=O)[O-] (centres unmarked) | 7.74
14 | CCOc1ccccc1CNC(=O)CCn1ccc2cc(S(=O)(=O)N3CCCCC3)ccc21 | 4.73
15 | O=S(=O)(c1ccccc1)c1nc(-c2cccc(Cl)c2)oc1N1CCOCC1 | -4.94
16 | COc1cc2c(cc1OC)C(Nc1ccc(S(N)(=O)=O)cc1)=NC(C)(C)C2 | -10.3
17 | O=C(c1cc(S(=O)(=O)N2CCOCC2)ccc1Cl)N1CCc2ccccc2C1 | -17.7
18 | Cc1ccc(NC(=O)CC2S/C(=N/N=C/C=C/c3ccccc3)NC2=O)cc1Cl (centres unmarked) | 28.3
19 | Cc1ccc(N=Cc2c(C)[nH]n(-c3nc4ccccc4[nH]3)c2=O)cc1 | -5.88
20 | Nc1nc2n(n1)C(c1cccs1)CC(c1ccc(F)cc1)N2 (centres unmarked) | -33.9
21 | COc1ccc(NS(=O)(=O)c2cccc(C(=O)NCC3CCCO3)c2)cc1 (centres unmarked) | -0.415
22 | COC(=O)c1cn(-c2ccccc2)nc1-c1ccc(OC)c(OC)c1 | -0.668

Row | SMILES | hERG current change (%, negative = inhibition) at 10uM [%]
23 | O=C(CN(CCc1ccccc1)C(=O)CNS(=O)(=O)c1ccc(F)cc1)NCc1ccco1 | -19.8
24 | COc1ccc(OC)c(Nc2nc(N)c([N+](=O)[O-])c(NCc3ccccc3)n2)c1 | 19.1
25 | CCc1nc2c(oc3ccccc32)c(=O)[nH]1 | 5.22
26 | COc1ccc(C(=O)Nc2nc3ccccc3s2)cc1 | 11.6
27 | O=C1NC(=O)C(CCc2ccncc2)(CCc2ccncc2)C(=O)N1Cc1ccccc1 | -72.5
28 | Cc1ccc(S(=O)(=O)N[C@H](C(=O)OCn2nnc3ccccc3c2=O)C(C)C)cc1 | 1.49
29 | Cc1cc2oc(=O)c3c(c2cc1OC(=O)c1ccco1)CCCC3 | 15.2
30 | Cc1ccccc1-c1nc(CN(C)C(C)c2ccon2)c(C)o1 (centres unmarked) | 19.2
31 | O=C(Nc1cccs1)Nc1cccnc1Cl | 7.97
32 | Cc1[nH]cnc1CN1CCc2c(c3ccccc3n2C)C1=O.Cl | -15.2
33 | COc1ccc(N(CC(=O)Nc2c(C)n(C)n(-c3ccccc3)c2=O)S(=O)(=O)c2ccc(C)cc2)cc1OC | 9.53
34 | COc1ccccc1N(CCN1C(=O)c2cccc3cccc(c23)C1=O)C(=O)c1ccncc1 | 16.3
35 | CC(=O)c1ccc(OCc2cc(C(=O)NCCc3ccc(Cl)cc3)no2)cc1 | -29.7
36 | COc1cccc(N(C(=O)Cn2nnc(-c3cccs3)n2)C(C(=O)NC2CCCCC2)c2ccncc2)c1 (centres unmarked) | 8
37 | Cc1ccc(N(CC(=O)NC2CCCC2)C(=O)CCC(=O)Nc2nccs2)cc1C | 14.2
38 | CCCCCCN1C=CC=C/C1=C/C=C(C#N)C#N | -76.5
39 | Cc1nn(-c2ccccc2)c(Cl)c1CN(C(=O)CCl)c1cccc2ccccc12 | -29
40 | COc1ccc(-c2nc3c(=O)n(C)c(=O)[nH]c3n2CCc2ccccc2)cc1 | 22.1
41 | Cc1c2ccccc2cc(Cc2ccccc2)[n+]1C.[I-] | 11.4
42 | COc1ccc(-c2nc(CS(=O)CC(=O)NCCCN3CCCC(C)C3)c(C)o2)cc1OC (centres unmarked) | 13.8
43 | CN(C)c1ccc(C(=O)/C=C/c2ccc(Br)cc2)cc1 | 7.69
44 | O=C(CCOc1ccccc1)Nc1ccnn1C1CCN(Cc2ccc(O)cc2)CC1 | -31.3

Row | SMILES | hERG current change (%, negative = inhibition) at 10uM [%]
45 | CNC(=O)Cc1csc2ccc(Cl)cc12 | 17.8
46 | COc1ccc(S(=O)(=O)CCC(=O)N2c3ccccc3CC2C)cc1 (centres unmarked) | -16.9
47 | O=C(c1cccc(Cl)c1)C1CCCN(C(=O)c2ccoc2)C1 (centres unmarked) | -36
48 | O=C(CN1CCN(S(=O)(=O)c2ccccc2C(F)(F)F)CC1)NCc1cccs1 | -68.1
49 | Nc1c(C(=O)N2CCOCC2)sc(=S)n1-c1ccccc1 | 4.13
50 | COc1cccc(Nc2ncnc3onc(-c4ccccc4OC)c23)c1 | -4.9
51 | Cc1ccc(OCC(=O)N/N=C/c2cccnc2)cc1C | -3.09
52 | O=C(COc1ccc(Br)cc1)NN1C(=O)c2ccccc2C1=O | 4.3
53 | C/C(N)=C(/C#N)C(=O)COC(=O)c1ccccc1Cc1ccccc1 | 16.2
54 | CCOC(=O)/C(C#N)=C/C1=C(N2CCCC2)CC(C)(C)OC1 | -6.24
55 | O=C(Nc1ccccn1)c1ccc(Cl)c(S(=O)(=O)N2CCCC2)c1 | -7.69
56 | Cc1ccc(C(=O)COc2ccccc2-c2ccccc2)cc1C | 5.71
57 | CC(=O)c1ccc(OCc2cc(C(=O)N(C)C(C)c3ccon3)no2)cc1 (centres unmarked) | 3.58
58 | Cc1cc(C)n(C(C)CC(=O)N2CCc3ccccc32)n1 (centres unmarked) | 5.2
59 | Cc1cccc(/C=C/c2nc3ccccc3c(=O)[nH]2)c1 | -11
60 | O=C(Nc1ccc(NC(=O)C2CC2)nc1)c1ccncc1 | 1.23
61 | CCCCCCNC(=O)C(C(=O)OCC)C1CCCCC1 (centres unmarked) | -4.59
62 | NC(=O)c1sc2nc3c(c(-c4cccs4)c2c1N)CCCCC3 | -4.46
63 | O=C(NC(N1CCOCC1)C(Cl)(Cl)Cl)c1ccco1 (centres unmarked) | 13
64 | Cn1nnnc1Sc1ncnc2scc(-c3ccc([N+](=O)[O-])cc3)c12 | -44.3
65 | COc1ccc(OC)c2[nH]c(=O)c(CCNC(=O)C(=O)c3c(C)[nH]c4ccccc34)cc12 | -1.04
66 | CCOC(=O)c1c(C)[nH]c(C(=O)CN2C(=O)NC(C)(CC(C)C)C2=O)c1C (centres unmarked) | 13.2

Row | SMILES | hERG current change (%, negative = inhibition) at 10uM [%]
67 | CCN1CCN(S(=O)(=O)c2ccc(Cl)nc2)CC1 | 0.409
68 | CC(C)CC(=O)N1CCC(N2CCN(c3ccccc3)CC2)CC1 | -12
69 | CC(=O)Nc1ccc(Nc2ccc(N3C(=O)CCCC3=O)cc2[N+](=O)[O-])cc1 | 8.22
70 | CC(NC(=O)c1ccc(N2CCNCC2)c([N+](=O)[O-])c1)C12CC3CC(CC(C3)C1)C2 (centres unmarked) | -27.6
71 | CCCN(CCC)CCCNC(=O)c1cc2c(=O)n(CC)c3ccccc3c2s1 | -29.8
72 | O=C(CCNC(=O)C1CCN(S(=O)(=O)c2ccccc2)CC1)NCCc1cccc(F)c1 | -12.2
73 | Cc1ccc(NC(=O)CN(C)C(=O)CSc2nc3ccccc3o2)cc1 | -20.5
74 | O=C(CSCc1ccc(Cl)cc1)N/N=C/c1c(Cl)cccc1Cl | 6.33
75 | COc1ccc(OC)c(NC(=O)C2CCC(CNc3c(N4CCC(C)CC4)c(=O)c3=O)CC2)c1 (centres unmarked) | 17
76 | COc1cc(OC)cc(-c2nc3ccccc3c(=O)n2OC(=O)c2ccc(C)c(C)c2)c1 | 0.86
77 | CCOc1ccc(CN2C(=O)CC(=O)N(S(=O)(=O)c3ccc(OCC)cc3)C2=O)cc1 | 11.9
78 | CCCCOC(=O)Cn1c2ccc(OC)cc2c2nc3ccccc3nc21 | -6.29
79 | COc1ccc(Nc2ccc3c(c2)=NC2(CCCCC2)[N+]=3[O-])cc1 | -25.1
80 | CCOC(=O)NC(=O)/C(C#N)=C\Nc1sccc1C(=O)OC | -18.1
81 | COC(=O)CN1C(=S)N(c2ccc(Cl)cc2)C(=O)C1CC(=O)Nc1ccc(F)cc1 (centres unmarked) | -14.6
82 | Cc1ccc(N=Nc2ccc(O)c(/C=N\NC(=O)c3ccc(N)cc3)c2)cc1C | 6.55
83 | CC(C)(C)OC(=O)N1CCN(c2ccc(NC(=O)Cn3nnc(-c4ccccc4)n3)cc2)CC1.Cl | 3.22
84 | Cc1cc(=O)n(-c2ccc(Cl)cc2)c(=O)[nH]1 | 19
85 | CCc1ccc(CN2CCSCC2)cc1 | 7.39
86 | Cc1cc(N)c2cc(NC(=O)/C=C/c3ccccc3Cl)ccc2n1 | -46.5
